In all, about 210,000 compounds went through this assay and about 730 (0.35%) were called active. The inconclusive results got no clear call from the source; some entries with a clear call stand among them for comparison. The call rests on the fitted dose curve; in most records, active means well fitted inhibition curve with a large enough effect; inconclusive means small, poorly fitted or top-dose-only effect; inactive means no such curve, though single readings can be large or run the other way. Where the call is inconclusive, the potency comes from a doubtful curve fit.
Assay: qHTS Assay for Identifying the Cell-Membrane Permeable IMPase Inhibitors: Potentiation with Lithium; further: nearly all actives have a fitted effect of over 50% in size;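 on activity, negative = IMPase inhibition: plate controls were basal vehicle for no effect and high inhibitor control for full effect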
Conditions: CHO-M1 cells, IP1 TR-FRET (IP-One), carbachol + lithium; series mostly up to 59.4 µM; activity, negative = IMPase inhibition: at the top concentration
In short: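 Concentration–response in CHO-M1 cells, lithium-potentiated; 30 min at 37C. IP1 detected by competitive TR-FRET after 10 min lysis at RT. Hill-fitted AC50.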
Potency means the concentration at half of the fitted maximal effect.

| Structure (SMILES) | activity, negative = IMPase inhibition | Potency |
| --- | --- | --- |
| COc1ccc(C(=O)c2coc3ccc(O)c(CN4CCCCC4)c23)cc1 | inactive: 55.2% [at 38.3 µM] |  |
| CN(C)CCCN(C(=O)CCc1ccccc1)c1nc2c(F)cccc2s1 | inactive: -8.11% |  |
| COC(=O)c1sc(N2C(=O)C(O)=C(C(=O)c3ccc(C)o3)C2c2ccc(F)cc2)nc1C (stereo unspecified) |  | active: 7.94 µM |
| Cc1ccccc1-c1nnc(-c2ccc(Br)cc2)o1 |  | inconclusive: 28.2 µM [inhibitor, single point] |
| COc1ccc(NC(=O)c2ccc(COc3ccccc3)o2)cc1 |  | inconclusive: 10 µM [inhibitor, partial curve] |
| Cc1ccsc1/C=C(\C#N)C(=O)NC1CCS(=O)(=O)C1 (stereo unspecified) | inactive: 10.4% |  |
| O=c1[nH]cnc2scc(-c3ccsc3)c12 |  | inconclusive: 31.6 µM [inhibitor, single point] |
| CCc1ccc(N(C(=O)c2csnn2)C(C(=O)NC(C)(C)C)c2cccnc2)cc1 (stereo unspecified) | inactive: 10.6% |  |
| COc1ccc2c(c1)C1=C(CC2)C(c2ccc(C)cc2)NC(=S)N1 (stereo unspecified) | inactive: -4.25% |  |
| CCOC(=O)c1cnn2c(C)cc(-c3ccccc3)nc12 |  | inconclusive: 12.6 µM [inhibitor, single point] |
| O=C(Nc1nc2ccccc2s1)c1cc2c(s1)-c1ccccc1OC2 |  | inconclusive: 8.91 µM [inhibitor, partial curve, poor fit] |
| Cc1cc(OC(=O)CNC(=O)OC(C)(C)C)c2c(C)cc(=O)oc2c1 |  | inconclusive: 8.91 µM [inhibitor, partial curve] |
| COc1ccc(-c2noc(-c3ccccc3Cl)n2)cc1OC |  | active: 8.91 µM |
| C/C(CC(=O)Nc1ccc(OCc2ccccc2)cc1)=N\NC(=O)C(=O)Nc1ccc(C)c(Cl)c1 | inactive: 6.72% [at 38.3 µM] |  |
| COc1ncc2nc(CCc3ccccc3)c(=O)n(CCc3ccccc3)c2n1 |  | inconclusive: 10 µM [inhibitor, single point] |
| COc1ccc(CC(=O)NNC(=O)COc2ccc3ccccc3c2)cc1 |  | inconclusive: 28.2 µM [inhibitor, single point] |
| CCOC(=O)C(=O)N1CCC(Cc2ccccc2)CC1 |  | inconclusive: 2.82 µM [inhibitor, partial curve] |
| CC(C)c1ccc(-c2c(C#N)c(N)nc(SCC(=O)N3CCCCC3)c2C#N)cc1 |  | inconclusive: 28.2 µM [inhibitor, single point] |
| COC(=O)COc1cc(OCC(=O)OC)c2c(C)c(Cl)c(=O)oc2c1 |  | inconclusive: 31.6 µM [inhibitor, single point] |
| CCOC(=O)c1sc2nc3c(cc2c1N)COC(C(C)C)C3 (stereo unspecified) |  | inconclusive: 31.6 µM [inhibitor, partial curve] |
| N#C/C(=C\c1cn(CCOc2ccccc2)c2ccccc12)C(=O)NCc1ccco1 |  | inconclusive: 8.91 µM [inhibitor, partial curve] |
| Cc1cc(Cl)ccc1Oc1nc(-c2ccc(F)cc2)ccc1C#N |  | inconclusive: 28.2 µM [inhibitor, single point] |
| COc1ccccc1NC(=O)c1nnn(CC(=O)Nc2cccc(SC)c2)c1N |  | active: 6.31 µM |
| COCc1cc(Sc2ccc(Br)cc2)nc(-c2ccccc2)n1 | inactive: 3.45% [at 38.3 µM] |  |

| Structure (SMILES) | activity, negative = IMPase inhibition | Potency |
| --- | --- | --- |
| O=C(Cc1c(Cl)cccc1Cl)Nc1cccnc1 |  | inconclusive: 5.01 µM [inhibitor, single point] |
| CN(Cc1ccco1)C(=O)C(Cc1ccccc1)NS(=O)(=O)c1ccc2c(c1)CCC(=O)N2 (stereo unspecified) |  | inconclusive: 1 µM [inhibitor, full curve] |
| CCOC(=O)N1CCN(CC(=O)c2ccc3c(c2)CCN3C(C)=O)CC1 | inactive: 1.83% [at 38.3 µM] |  |
| CC(Sc1ccc2ccccc2n1)C(=O)O (stereo unspecified) |  | active: 8.91 µM |
| Cc1ccc(-c2nnc(SCC(=O)O)n2N)cc1 |  | inconclusive: 5.62 µM [inhibitor, partial curve, poor fit] |
| O=C(CSc1nc(-c2ccccc2)nc2c1Cc1ccccc1O2)Nc1ccccc1 |  | inconclusive: 5.01 µM [inhibitor, partial curve] |
| COc1cc2c(=O)n(-c3ccc(C)cc3)c(=O)n(CC(=O)c3ccc4c(c3)OCO4)c2cc1OC |  | inconclusive: 28.2 µM [inhibitor, single point] |
| CCc1cc2cc(C)c(C)cc2nc1SCC(=O)NNC(=O)c1ccco1 |  | inconclusive: 28.2 µM [inhibitor, single point] |
| CC(=O)c1oc2ccccc2c1NC(=O)CCCN1C(=O)c2ccccc2C1=O |  | active: 12.6 µM |
| CCc1cccc(CC)c1-n1c(SCC(=O)c2c(N)n(C)c(=O)n(C)c2=O)nnc1-c1cccnc1 |  | inconclusive: 11.2 µM [inhibitor, single point] |
| CC(=O)Nc1ccc(S(=O)(=O)N2CCSC2c2ccco2)cc1 (stereo unspecified) | inactive: 1.86% |  |
| CCOc1cccc(/C(O)=C2/C(=O)C(=O)N(Cc3cccnc3)C2c2ccco2)c1 (stereo unspecified) | inactive: -9.4% [at 38.3 µM] |  |
| CC(=O)c1cccc(NC2c3ncccc3C(=O)N2Cc2ccco2)c1 (stereo unspecified) | inactive: 2.98% [at 38.3 µM] |  |
| CCOc1ccccc1NC(=O)CSc1ncnc2c1oc1ccccc12 |  | inconclusive: 28.2 µM [inhibitor, single point] |
| C=CCOc1cccc(C2/C(=C(/O)c3ccc(C)cc3)C(=O)C(=O)N2CCN2CCOCC2)c1 (stereo unspecified) |  | inconclusive: 11.2 µM [inhibitor, partial curve] |
| Cc1csc(NC(=O)[C@@H]2CCCN2C(=O)c2cccs2)n1 |  | inconclusive: 5.01 µM [inhibitor, single point] |
| COC(=O)c1cc(OC)c(OC)cc1NC(=S)Nc1cccc(Cl)c1 |  | inconclusive: 31.6 µM [inhibitor, partial curve] |
| CCCOc1ccc(C(=O)CCN2CCN(C(=O)OCC)CC2)cc1 | inactive: 4.89% |  |
| CCn1c(=O)cc(SCC(=O)NCc2ccco2)c2ccccc21 |  | inconclusive: 10 µM [inhibitor, partial curve] |
| O=C(O)c1ccccc1SCc1cn2cc(Br)ccc2n1 |  | inconclusive: 22.4 µM [inhibitor, single point] |
| COc1ccc2[nH]c(=O)c(CN(CC3CCCO3)C(=O)Nc3ccccc3OC)cc2c1 (stereo unspecified) |  | inconclusive: 28.2 µM [inhibitor, single point] |
| O=C(Oc1ccccc1)Oc1ccc2c(c1)oc(=O)c1ccccc12 |  | active: 10 µM |
| CC(C)(C)c1ccc(-c2nnc(SCC(=O)c3ccc4c(c3)OCCO4)o2)cc1 |  | inconclusive: 28.2 µM [inhibitor, single point] |
| COC(=O)c1cc(CSc2nc3ccccc3[nH]2)oc1C | inactive: 25.5% [at 38.3 µM] |  |

| Structure (SMILES) | activity, negative = IMPase inhibition | Potency |
| --- | --- | --- |
| CCCn1nnc(NC(=O)C(C)Oc2ccc(Cl)cc2Cl)n1 (stereo unspecified) | inactive: 21.4% [at 38.3 µM] |  |
| CCOC(=O)c1sc2nc(CC(=O)OC)nc(N(C)CCc3ccccn3)c2c1C |  | inconclusive: 11.2 µM [inhibitor, single point] |
| O=C(Nc1ccc2c(c1)OCCO2)c1cc(-c2ccccn2)nc2ccc(Br)cc12 |  | active: 12.6 µM |
| O=C(Nc1ccc(Oc2ccccc2)cc1)C1CCN(c2ncccn2)CC1 |  | inconclusive: 12.6 µM [inhibitor, single point] |
| COc1ccc(CCn2c(N3CCN(C)CC3)nc3c2c(=O)[nH]c(=O)n3C)cc1 | inactive: 16.3% [at 38.3 µM] |  |
| Cc1cc(NC(=O)CSc2nc(-c3ccccc3Cl)nc3c2c(=O)n(C)c(=O)n3C)no1 |  | inconclusive: 25.1 µM [inhibitor, single point] |
| c1ccc(-n2ncc3c2ncn2nc(-c4ccco4)nc32)cc1 |  | inconclusive: 28.2 µM [inhibitor, single point] |
| Cn1c(=O)c(=O)n(C)c2cc(S(=O)(=O)N3CCCCCC3)ccc21 |  | inconclusive: 31.6 µM [inhibitor, partial curve, poor fit] |
| CCOC(=O)Nc1cc(Br)c2c(c1)OCCO2 | inactive: -1.18% [at 38.3 µM] |  |
| CN(Cc1ccco1)c1ncncc1-c1ccoc1 |  | inconclusive: 28.2 µM [inhibitor, single point] |
| CCNc1ncc2nc(-c3ccc(OC)cc3)c(=O)n(Cc3ccc(F)cc3)c2n1 |  | inconclusive: 7.94 µM [inhibitor, partial curve] |
| C=CCn1c(SCC(=O)N2CCN(c3ccc(F)cc3)CC2)nnc1-c1cccs1 |  | inconclusive: 28.2 µM [inhibitor, single point] |
| CCCNC(=O)c1ccc2c(c1)ncn2-c1ccccc1OC | inactive: -7.08% [at 38.3 µM] |  |
| COc1ccc(CCNC(=O)CO/N=C/c2cc3c(cc2Br)OCO3)cc1OC |  | inconclusive: 5.01 µM [inhibitor, single point] |
| S=c1[nH]nc(-c2ccccn2)n1/N=C/c1ccc(-c2ccccc2Br)o1 |  | inconclusive: 10 µM [inhibitor, partial curve] |
| O=C(NCc1ccccc1)C1CCCN(c2nc3ccsc3c(=O)s2)C1 (stereo unspecified) |  | inconclusive: 12.6 µM [inhibitor, single point] |
| Cc1ccc(SCCNC(=O)c2cccc([N+](=O)[O-])c2C)cc1 | inactive: 5.24% [at 38.3 µM] |  |
| O=C(COc1ccc2c3c(c(=O)oc2c1)CCC3)NC1CCCCC1 |  | inconclusive: 28.2 µM [inhibitor, single point] |
| COc1ccc(N2CCN(C(=O)CSc3nnc(-c4ccc5[nH]c(C)c(C)c5c4)o3)CC2)cc1 |  | inconclusive: 10 µM [inhibitor, partial curve] |
| COc1cc2nc(-c3ccc(Br)o3)oc(=O)c2cc1OC |  | inconclusive: 28.2 µM [inhibitor, single point] |
| CCNc1ncc2nc(-c3ccc(Cl)cc3)c(=O)n(C3CC3)c2n1 |  | active: 5.01 µM |
| CCN(CC)C(=N)N1c2ccccc2CCC1C (stereo unspecified) |  | inconclusive: 2.82 µM [inhibitor, full curve, poor fit] |
| CCN1C(=O)C2(C(C(=O)c3ccc(C)o3)=C(O)C(=O)N2CCCN2CCOCC2)c2ccccc21 (stereo unspecified) |  | inconclusive: 10 µM [inhibitor, single point] |
